Results on 1 molecule are retold here after patent US20020102658A1.

This assay addresses human AILIM (activation inducible lymphocyte immunomodulatory molecule) (human) (UniProt Q9Y6W8). Put plainly: cell ELISA on recombinant CHO cells overexpressing human AILIM; given as ED50. (In general: In an ELISA, binding on a coated surface is turned into a signal by an enzyme label.)

A word on the EC50: it is the concentration at which the effect is half-maximal.

Sequence of UniProt Q9Y6W8 (Q9Y6W8 21-199): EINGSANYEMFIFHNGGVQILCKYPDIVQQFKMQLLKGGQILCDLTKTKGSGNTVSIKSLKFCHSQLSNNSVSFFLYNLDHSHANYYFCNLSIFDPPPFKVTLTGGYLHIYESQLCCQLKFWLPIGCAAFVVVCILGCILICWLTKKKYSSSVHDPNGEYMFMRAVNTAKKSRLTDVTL

B1: human anti-human AILIM monoclonal antibody JMab-136 (clone AIH5D3) (antibody, from another filing, human IgG2, V domains shown)
VH: [in this place about 100 residues]TYYYDSSGYYHDAFDIWGQGTMVTVSS
VL: DIQMTQSPSSVSASVGDRVTITCRASQGISRLLAWYQQKPGKAPKLLIYVASSLQSGVPSRFSGSGSGTDFTLTISSLQPEDFATYYCQQANSFPWTFGQGTKVEIKR
As for B1, the EC50 stood at 7.5 ng/mL.
